# Measured values taken from PubChem BioAssay AID360 (National Center for Advancing Translational Sciences (NCATS), 2006).
# The campaign covered roughly 48,000 compounds. About 550 (1.1%) were called active. Not shown: some 4% with an inconclusive outcome. Cut-off read from the data, not from the text of the source: active = potency below about 15 µM; inconclusive = mostly about 16 µM to 33 µM; inactive = weaker than that. Some of the results follow.
# Target: Lysosomal acid glucosylceramidase (Homo sapiens) (UniProt P04062)
# Chain of UniProt P04062 (P04062 whole entry, looked up): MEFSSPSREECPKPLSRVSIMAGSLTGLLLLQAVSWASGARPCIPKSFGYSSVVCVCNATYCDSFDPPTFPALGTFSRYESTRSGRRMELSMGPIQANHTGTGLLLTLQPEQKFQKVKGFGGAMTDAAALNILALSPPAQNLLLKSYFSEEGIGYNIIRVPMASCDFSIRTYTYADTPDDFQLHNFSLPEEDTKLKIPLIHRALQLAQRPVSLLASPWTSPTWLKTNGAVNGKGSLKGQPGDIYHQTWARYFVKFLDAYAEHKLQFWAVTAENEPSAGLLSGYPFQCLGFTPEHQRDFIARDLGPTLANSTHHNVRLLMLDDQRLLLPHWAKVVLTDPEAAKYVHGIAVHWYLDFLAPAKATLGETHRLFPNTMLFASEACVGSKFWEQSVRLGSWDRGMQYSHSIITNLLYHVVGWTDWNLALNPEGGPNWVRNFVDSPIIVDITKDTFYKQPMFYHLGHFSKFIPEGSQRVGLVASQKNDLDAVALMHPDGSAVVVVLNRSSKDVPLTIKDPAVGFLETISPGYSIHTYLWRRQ
# Assay: Glucocerebrosidase;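 note: the screen sought inhibitors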
# Conditions: purified enzyme, resorufin glucoside fluorescence (screen aimed at inhibitors), 20 min
# Procedure, shortened: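 Wild-type enzyme at 0.2 nM final in 50mM citric acid/KH2PO4, 10mM sodium taurocholate, 0.01% tween-20, pH 5.9, with resorufin beta-D-glucopyranoside at 30 uM final. Compounds titrated, 20 min at RT, red fluorescence read; AC50 from titration.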
# Potency is the fitted concentration of half-maximal effect.
row,SMILES,Potency
1,Cc1ccc(N(C(=O)Cn2nnc(-c3ccc(C)o3)n2)C(C(=O)NC2CCCC2)c2ccco2)cc1 (stereo unspecified),inactive: > 76.9 µM
2,CCCn1nc(C(=O)N2CC(=O)Nc3ccccc32)c2ccccc2c1=O,inactive: > 76.9 µM
3,c1ccc(-n2ncc3c2ncn2nc(-c4ccco4)nc32)cc1,inactive: > 76.9 µM
4,CN(C(=O)C1CCN(S(=O)(=O)c2cccs2)CC1)C1CCCCC1,active: 12.6 µM
5,CC1CC(C)(C)NC(=O)O1 (stereo unspecified),inactive: > 76.9 µM
6,O=C(CCCOc1ccccc1)N1CCN(C(=O)c2ccco2)CC1,inactive: > 76.9 µM
7,Cc1nc(N[C@@H](Cc2c[nH]c3ccccc23)C(=O)O)c2oc3ccccc3c2n1,inactive: > 76.9 µM
8,COc1ccc(CCn2c(N3CCN(C)CC3)nc3c2c(=O)[nH]c(=O)n3C)cc1,inactive: > 76.9 µM
9,Cn1c2ccccc2c2ncn(CCCN3CCOCC3)c(=O)c21,inactive: > 76.9 µM
10,CCCCNC(=O)OCC(CC)NC(=O)OC(C)C (stereo unspecified),inactive: > 76.9 µM
11,c1ccc(-c2csc(N3CCN(c4ccccn4)CC3)n2)cc1,inactive: > 76.9 µM
12,O=C(NCCCN1CCN(c2cccc(Cl)c2)CC1)C1CCC(=O)N1Cc1ccccc1Cl (stereo unspecified),inactive: > 76.9 µM
13,COc1ccc(OC)c(C(c2nnnn2C(C)(C)C)N2CCc3ccccc3C2)c1 (stereo unspecified),inactive
14,Cc1ccc(N)cc1CN1CCCC1=O,inactive: > 76.9 µM
15,CCCCCCNC(=O)Cc1nc2nc(C)cc(C)n2n1,inactive: > 76.9 µM
16,Cn1c(=O)c(=O)n(C)c2cc(S(=O)(=O)N3CCCCCC3)ccc21,inactive: > 76.9 µM
17,COc1cccc(C2c3c(oc4ccc(Cl)cc4c3=O)C(=O)N2c2cc(C)on2)c1OC (stereo unspecified),inactive: > 76.9 µM
18,Cc1ccc2[nH]c(=O)c(CN(Cc3ccco3)C(=O)c3ccncc3)cc2c1,inactive: > 76.9 µM
19,O=C(NCC(=O)N(Cc1ccc(F)cc1)C(C(=O)NC1CCCC1)c1ccco1)c1ccco1 (stereo unspecified),inactive: > 76.9 µM
20,CC1(C)N([O-])C(c2ccccc2)=C[N+](=O)C1(C)C,inactive: > 76.9 µM
21,O=C(NC1CCCCCCC1)C1=COCCO1,inactive: > 76.9 µM
22,CC(NS(=O)(=O)c1ccc(CCC(=O)N2CCN(C)CC2)cc1)c1ccccc1 (stereo unspecified),inactive: > 76.9 µM
23,CC1=CC(C)=Nc2ccc(C)cc2N1,inactive: > 76.9 µM

row,SMILES,Potency
1,COc1ccc(CCNC(=O)c2ccc(CNc3c(N4CCOCC4)c(=O)c3=O)cc2)cc1OC,inactive: > 76.9 µM
2,COc1ccc(S(=O)(=O)N2CCC(C(=O)N3CCCCC3)CC2)cc1OC,inactive: > 76.9 µM
3,C/C(N)=C(/C#N)C(=O)CSc1nnc(SCc2ccc(Cl)cc2)s1,inactive: > 76.9 µM
4,CCOC(=O)CNC(=O)CSc1nnc(-c2ccccc2)n1Cc1ccco1,inactive: > 76.9 µM
5,Brc1ccc2[nH]ncc2c1,inactive: > 76.9 µM
6,[O-]/[N+](=C\c1ccccc1)[C@@H]1CCCC[C@@H]1/[N+]([O-])=C/c1ccccc1,inactive: > 76.9 µM
7,O=S(=O)(c1cc(Cl)ccc1Cl)N1CCCCC1,inactive: > 76.9 µM
8,Nc1nonc1-c1nc2ccccc2n1CC(=O)NC1CCCC1,inactive: > 76.9 µM
9,O=C1CCCC2=C1C(c1cccs1)n1nc(SCc3ccccc3)nc1N2 (stereo unspecified),inactive: > 76.9 µM
10,CCOC(=O)C1CCCN(c2nnnn2-c2ccccc2)C1 (stereo unspecified),inactive: > 76.9 µM
11,O=C(Nc1ccc(Oc2ccccc2)cc1)C1CCN(c2ncccn2)CC1,inactive: > 76.9 µM
12,Cc1ccccc1NC(=O)CC1SCCNC1=O (stereo unspecified),inactive: > 76.9 µM
13,COc1ccc(-n2c(SCC(=O)Nc3cc(C)on3)nc3ccc(O)cc3c2=O)cc1OC,inactive: > 76.9 µM
14,COc1ccc(Cl)cc1S(=O)(=O)N1CCN(C(=O)c2ccco2)CC1,inactive: > 76.9 µM
15,Cc1c(C(=O)c2no[n+]([O-])c2C(=O)c2cnn(C)c2C)cnn1C,inactive: > 76.9 µM
16,Clc1ccc(-c2nnc(-c3ccccc3)o2)c(Cl)c1,inactive: > 76.9 µM
17,CCS(=O)(=O)N1CCCC(C(=O)NCC2CCCO2)C1 (stereo unspecified),inactive: > 76.9 µM
18,Cc1c(NC(=O)COC(=O)C2CC3C=CC2C3)c(=O)n(-c2ccccc2)n1C (stereo unspecified),inactive: > 76.9 µM
19,CCCS(=O)(=O)N1CCC(C(=O)N2CCN(Cc3ccccc3)CC2)CC1,inactive: > 76.9 µM
20,COc1cccc(OC)c1C(=O)Nc1ccc(CN2CCOCC2)cc1,inactive: > 76.9 µM
21,CC(C)OC(=O)c1c(N)sc2c1CCCC2,inactive: > 76.9 µM
22,COc1ccc(S(=O)(=O)N(C)CC(=O)NCCC2=CCCCC2)cc1,inactive: > 76.9 µM
23,CCSc1ncc(Cl)c(C(=O)Nc2ccc(S(=O)(=O)Nc3onc(C)c3C)cc2)n1,inactive: > 76.9 µM
